Data on two compounds can be found in article PMC12627862, “Therapeutic targeting of endothelial calcium signaling accelerates the resolution of lung injury” (Signal Transduction and Targeted Therapy, 2025).

The subject of assay [1] is calcium release from ER stores in primary HLMVECs. The assay is described as follows: Cytosolic calcium measurements (Fluo-4), α-thrombin-induced release. The conditions noted are these: read-out: IC50, calcium release from ER stores; Fluo-4, primary HLMVECs, 50 nM α-thrombin, nominal calcium-free environment; n = 3 independent experiments.
In assay [2] the test system is CD1 mice, cecal ligation and puncture. The assay is described as follows: Polymicrobial sepsis model (CLP). Format: in vivo, mouse. The conditions noted are these: FOXM1ΔiEC mice, CLP 18-gauge, 24 hours, 2 µmol/kg bw.

Starred links: 1 amine or outer side, 2 acyl side, 3 side chain; linkers in the order of their positions; H or OH if unused. Positions of bridges follow the written chain, without caps; N, C: chain ends. Non-standard residues stand in square brackets, D forms with d. Residues, ends and D or L forms follow the SMILES beside them. ξ: configuration not given here. X2 = C[C@@](CCCCC=[*:3])(N[*:1])C(=O)[*:2]; Oic = O=C(O)[C@@H]1C[C@@H]2CCCC[C@@H]2N1; GABOB(3R) = O=C(C[C@@H](O)CN[*:1])[*:2]; d(tBuAla) = CC(C)(C)C[C@@H](N)C(=O)O; dVal(3-OH) = CC(C)(O)[C@@H](N)C(=O)O; tBuAla = CC(C)(C)C[C@H](N)C(=O)O; ξVal(3-OH) = CC(C)(O)C(N)C(=O)O; R5 = C=CCCC[C@@](C)(N)C(=O)O; X1 = O=C(CC(O)CN[*:1])[*:2]; 4Amb = NCc1ccc(C(=O)O)cc1

In the case of `CC(C)(C)C[C@@H]1NC(=O)C[C@@H](O)CNC(=O)[C@@H]2C[C@@H]3CCCC[C@@H]3N2C(=O)[C@H](CC(C)(C)C)NC(=O)c2ccc(cc2)CNC(=O)C(C(C)(C)O)NC(=O)[C@@H](Cc2ccccc2)NC1=O` (stereo partly drawn) [compound 109, (1^2S,1^3aS,1^7aS,3S,10S,13R,16S,20R)-13-benzyl-20-hydroxy-10-(2-hydroxypropan-2-yl)-3,16-dineopentyl-1^2,1^3,1^3a,1^4,1^5,1^6,1^7,1^7a-octahydro-1^1H-4,8,11,14,17,22-hexaaza-1(1,2)-indola-6(1,4)-benzenacyclotricosaphane-2,5,9,12,15,18,23-heptaone.] (cyclo([4Amb][tBuAla][Oic][GABOB(3R)][tBuAla][dF][ξVal(3-OH)])), the IC50 (in general, the concentration needed to halve the response being measured) in assay [1] worked out at 109.8 ± 0.26 nM. Also, in assay [2], the “vascular leakage (EBA extravasation)” value is on record as “did not reduce vascular leakage”.

For `CC(C)(C)C[C@@H]1NC(=O)[C@](C)(NC(=O)c2ccc(CNC(=O)[C@H](N)C(C)(C)O)cc2)CCC/C=C\CCCC[C@@](C)(C(=O)N[C@H](CC(C)(C)C)C(=O)O)NC(=O)CC(O)CNC(=O)[C@@H]2C[C@@H]3CCCC[C@@H]3N2C1=O` (stereo partly drawn) [compound 108, (2R)-2-((8S,18R,21S,23aS,27aS,28aS,Z)-18-(4-(((R)-2-amino-3-hydroxy-3-methylbutanamido)methyl)benzamido)-4-hydroxy-8,18-dimethyl-21-neopentyl-1,6,19,22-tetraoxo-1,2,3,4,5,6,7,8,9,10,11,12,15,16,17,18,19,20,21,22,23a,24,25,26,27,27a,28,28a-octacosahydro-[1,4,7,12]tetraazacyclotetracosino[4,5-a]indole-8-carboxamido)-4,4-dimethylpentanoic acid] (H-[dVal(3-OH)][4Amb][R5][tBuAla][Oic][X1][X2][d(tBuAla)]-OH; staple (Z) 3-7), in assay [1], the IC50 amounted to 129.7 ± 0.33 nM.
